Test results taken from PubChem BioAssay AID1347417 (National Center for Advancing Translational Sciences (NCATS), 2020).
The campaign covered roughly 120,000 compounds. About 5,300 (4.4%) were called active. The shares of active, inactive and inconclusive entries below differ from those in the screen. Calls come from the whole dose curve; as a rule, active = well fitted inhibition curve with a large enough effect; inconclusive = small, poorly fitted or top-dose-only effect; inactive = no such curve, though single readings can be large or run the other way. Potencies beside an inconclusive call are fits to weak or partial responses and may not hold up.

assay: qHTS Primary assay for Inhibitors of Plasmodium falciparum Dd2 growth in vitro; note: nearly all actives have a fitted effect of over 65% in size; conditions: P. falciparum Dd2 growth, SYBR Green, 72 h; series mostly up to 28.9 µM
How it was run: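 Readout: SYBR Green fluorescence, 485 nm excitation, 535 nm emission, after ~16 h lysis at 37C. Before that, Dd2-infected red cells (2.5% hematocrit) grew 72 h with compound, 29 uM top final concentration.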
Potency is the fitted concentration of half-maximal effect; tags give direction and shape of the fitted curve.

Structure (SMILES)	Potency
O=C(NCc1nnc2cc(-c3nc(C4CC4)no3)ccn12)C1(c2ccccc2)CC1	inconclusive: 5.01 µM [inhibitor, partial curve]
COCC(=O)NC[C@H]1CCN(Cc2cccc(Cl)c2)C[C@H]1N(C)C	inconclusive: 17.8 µM [inhibitor, single point]
COc1ccc(N2CCN(CCCNC(=O)C3(CCO)CC34CCOCC4)CC2)cc1 (configuration not stated)	inactive
CC(C)(C)C1CCc2nc(NC(=O)c3ccc([N+](=O)[O-])cc3)sc2C1 (configuration not stated)	inconclusive: 11.2 µM [inhibitor, single point]
CN(C)c1cccc(C(=O)NC2CCN(c3cc(-c4ccc(Cl)cc4)[nH]n3)CC2)c1	inactive
Cc1cc(Oc2ccc(CN)cc2)nc2ccccc12	inconclusive: 10 µM [inhibitor, single point]
Cc1cccc(-c2nc3c(cnn3-c3ccccc3)c(=O)n2-c2ccc(Br)cc2)c1	inconclusive: 10 µM [inhibitor, single point]
COc1cccc(CCC2CCCN(C(=O)c3ccoc3C)C2)c1 (configuration not stated)	inconclusive: 17.8 µM [inhibitor, single point]
O=C1[C@@H]2C[C@@H](CN2Cc2ccc(F)cc2)Oc2ccccc2N1CC1CC1	inconclusive: 15.8 µM [inhibitor, partial curve, poor fit]
CCOC(=O)C1CCCN(C(=O)c2cnc3cc(C)nn3c2)C1 (configuration not stated)	inactive
O=C1N(Cc2ccc(F)c(F)c2)CCCC12CCN(c1nc3ccccc3o1)C2 (configuration not stated)	inconclusive: 20 µM [inhibitor, single point]
CC(C)CNC(=O)C(NC(=O)c1ccccc1)C1CCN(C(=O)c2ccc(F)cc2)CC1 (configuration not stated)	inconclusive: 1.41 µM [inhibitor, full curve]
COc1ccc(N2Cc3c(NCC4CCCCCC4)ncnc3N(C)CC2=O)cc1	inconclusive: 11.2 µM [inhibitor, single point]
CCc1nc(-c2c3n(c(=O)n(CC(=O)c4ccc(Cl)cc4)c2=O)CCCC3)no1	inconclusive: 17.8 µM [inhibitor, single point]
Cc1ccc2[nH]cc(C(c3ccccc3)c3ccc(C)s3)c2c1 (configuration not stated)	inconclusive: 17.8 µM [inhibitor, single point]
CCC(C)NC(=O)CCc1c(C)nc2c(c(C)nn2-c2ccc(C)cc2)c1C (configuration not stated)	inconclusive: 2.51 µM [inhibitor, full curve, poor fit]
CCOC(=O)c1ccc(-c2ccc(/C=C(\C#N)c3nc4ccc(C)cc4[nH]3)o2)cc1	inconclusive: 0.794 µM [inhibitor, full curve]
O=c1[nH]c(C2CCN(Cc3cccc4ccccc34)CC2)nn1Cc1ccccc1	inconclusive: 10 µM [inhibitor, single point]
Cc1nn(CCC(=O)NCc2ccc(Cl)cc2)c(=O)c2nn(-c3ccccc3)c(C)c12	inconclusive: 17.8 µM [inhibitor, single point]
Cc1ccc(NC(=O)CC2Nc3cc(C)c(C)cc3NC2=O)c(C)c1 (configuration not stated)	active: 3.16 µM
CC(C)c1nc(CN(C)C(=O)c2csc3nc(-c4ccc(F)cc4)cn23)no1	inactive
Cc1ccc(Cc2nc3ccccc3nc2SCC(=O)N2CCN(c3ccccc3)CC2)cc1	inconclusive: 0.112 µM [inhibitor, full curve, poor fit]
O=C([C@@H]1C[C@H](F)CN1S(=O)(=O)c1ccc(F)cc1F)N1CCCCC1	inactive

Structure (SMILES)	Potency
COc1ccccc1NC(=O)N1CCc2cc(OC)c(OC)cc2C1CNC(=O)C(C)C (configuration not stated)	inconclusive: 10 µM [inhibitor, partial curve]
C[C@]1(CO)C2CC[C@@H](O)[C@@H](CC(=O)NCc3ccccc3)[C@]2(C)CC[C@H]1OC(=O)NC1CCCCC1 (some centres not stated)	inconclusive: 8.91 µM [inhibitor, single point]
N#CC1=C2SCN(C3CCCCC3)CN2C(=O)CC1c1c(F)cccc1Cl (configuration not stated)	inconclusive: 11.2 µM [inhibitor, single point]
CCC(=O)N1Cc2ccccc2CC2(CCCCN2Cc2ccncc2)C1 (configuration not stated)	inconclusive: 20 µM [inhibitor, single point]
FC(F)(F)c1cccc(CN2CCOC[C@H](Oc3cccnc3)C2)c1	inconclusive: 14.1 µM [inhibitor, partial curve, poor fit]
COc1cccc(CN(C)C2CCCc3ccccc32)c1 (configuration not stated)	inconclusive: 31.6 µM [inhibitor, single point]
Cc1cccc(C)c1-c1nc(C(=O)N2CCC(C#N)CC2)n2ccccc12	inactive
COc1cc(OC)cc(C(=O)N2CCCN(c3cc(-c4ccc(Br)cc4)[nH]n3)CC2)c1	inconclusive: 2.82 µM [inhibitor, partial curve, poor fit]
Cn1nc(C2CCCN2)c2c(C(=O)NCC(F)(F)F)cc(C3CC3)nc21 (configuration not stated)	inactive
N#Cc1ccccc1CN1CCCCC12Cc1ccccc1CNC2=O (configuration not stated)	inconclusive: 22.4 µM [inhibitor, partial curve, poor fit]
Cc1ccc(OCC(=O)N2CCCCCC2c2nc(C)no2)cc1 (configuration not stated)	inactive
O=C1CO[C@H]2CCN(Cc3c[nH]c4ccccc34)CC[C@@H]2N1Cc1ccccc1	inconclusive: 5.62 µM [inhibitor, single point]
COc1ccccc1N1CCN([C@H]2[C@@H]3OC[C@@H](O3)[C@@H](NCc3ccc(F)cc3)[C@@H]2O)CC1	active: 7.94 µM
O=C(CC(c1cccc2c1OCO2)c1c[nH]c2ccccc12)NCc1ccccc1 (configuration not stated)	inactive
Cc1ccc(S(=O)(=O)Cc2noc([C@@H]3C[C@@H](O)CN3Cc3cccc(OC(F)(F)F)c3)n2)cc1	inactive
CCOc1ccccc1CNC(=O)Cn1cc2c(n1)-c1c(oc(C(=O)N3CCCC3)c1C)CC2	inconclusive: 8.91 µM [inhibitor, partial curve, poor fit]
COCC(=O)NCCc1noc(-c2cccnc2)n1	inactive
CC(=O)N1CCN([C@H]2[C@@H]3OC[C@@H](O3)[C@@H](NCc3ccc4c(c3)OCO4)[C@@H]2O)CC1	inactive
CN1C(=O)c2cccn2CC1C(=O)N1CCc2ccccc21 (configuration not stated)	inactive
COc1ccc(N2CCN(Cc3cccn3-c3nnc(N4CCN(C5CCCCC5)CC4)s3)CC2)cc1	inconclusive: 11.2 µM [inhibitor, single point]
Cc1ccc([N+](=O)[O-])cc1S(=O)(=O)N1CCn2cccc2C1c1ccccc1 (configuration not stated)	inconclusive: 0.0891 µM [inhibitor, full curve, poor fit]
Cc1ccc(C(=O)N2CCC3(CC2)COc2ccccc2C(=O)N3)cc1	inconclusive: 2.51 µM [inhibitor, full curve, poor fit]
COc1ccc(Cl)cc1NC(=O)Cn1c(N2CCOCC2)nc(C)cc1=O	inconclusive: 6.31 µM [inhibitor, partial curve, poor fit]

Structure (SMILES)	Potency
Cn1c(CCNC(=O)C2CCCN(C(=O)c3ccccc3)CCC(=O)NCC2)nc2ccccc21 (configuration not stated)	inactive
COc1ccc(CN2C(=O)CO[C@H]3CN(Cc4c[nH]c5ccccc45)C[C@H]32)cc1	active: 7.94 µM
O=C(Cn1cc(S(=O)(=O)c2ccccc2)c(=O)c2cc3c(cc21)OCO3)Nc1ccc(Cl)cc1	inconclusive: 10 µM [inhibitor, single point]
O=C(NCCc1ccc(Cl)cc1)C1CCc2nnc(C3CCN(C(=O)C4CC4)CC3)n21 (configuration not stated)	inactive
CC(C)CNc1ccc2c(n1)C(C)(C(=O)NC1COC1)CN(Cc1ccccc1)C2 (configuration not stated)	inconclusive: 0.708 µM [inhibitor, full curve, poor fit]
O=C(Cn1cccc1-c1nc(-c2ccc3c(c2)OCO3)no1)NCc1ccc(Cl)cc1	inactive
CCOc1ccccc1CNC(=O)c1ccc2c(c1)nc1n2CCCCC1	inconclusive: 10 µM [inhibitor, single point]
Cc1ccc(Cl)cc1-n1ncc2c(NCCCc3ccccc3)ncnc21	inactive
Cc1nc(-c2ccccc2)n(Cc2ccc(F)cc2Cl)c(=O)c1CCO	inconclusive: 3.16 µM [inhibitor, full curve]
CN(C)c1ccc(-c2nc(-c3ccco3)no2)cc1[N+](=O)[O-]	inconclusive: 20 µM [inhibitor, single point]
O=C(c1ccc(Cl)cc1)N1CC2(CCCN2Cc2ccc(Cl)cc2)Cc2ccccc21 (configuration not stated)	active: 10 µM
O=C(c1cccc(Cl)c1)N1CCC(c2n[nH]c(=O)n2-c2ccccc2)CC1	inactive
CCOc1ccc(N2C(=O)c3n[nH]c(-c4cccs4)c3C2c2cccc(F)c2)cc1 (configuration not stated)	inconclusive: 5.62 µM [inhibitor, partial curve, poor fit]
O=C(NCCc1noc(C2CC2)n1)c1ccoc1	inactive
O=C(NC[C@H]1COCc2nc3cccnc3n21)Nc1ccccc1	inactive
C[C@]1(CO)C2CC[C@@H](O)[C@@H](CC(=O)N3CCC[C@H]3CO)[C@]2(C)CC[C@H]1OC(=O)Nc1cccc(F)c1 (some centres not stated)	inactive
COc1cc(NC(=O)C2CCCCC(=O)N2)cc(OC)c1 (configuration not stated)	inactive
CN(C)S(=O)(=O)N1CCC(N2C(=O)C3(CCCCC3)C2c2ccccc2)CC1 (configuration not stated)	inactive
CCc1cccc(C)c1NC(=O)CCn1c(=O)c2cccn2c2ccccc21	inconclusive: 12.6 µM [inhibitor, single point]
COc1ccc(NC(=O)c2ccco2)cc1NC(=O)COc1ccc(Cl)c(C)c1	inconclusive: 11.2 µM [inhibitor, partial curve, poor fit]
Cc1nc(-c2ccccc2OC2CN(C(=O)c3cnn(C)c3)C2)no1	inactive
